We go through 109 compounds from PubChem BioAssay AID488969 (Vanderbilt High Throughput Screening Facility, 2010).

The full ranking holds about 110,000 compounds; the median of “z-score” is about -0.1, and the highest 2% start at about 2. The list shows a part of the results. The source made the active and inactive calls.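 Rule for the calls: active = z-score in the third read window above 3 or below -3; inactive = the rest.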

For this test, the target named is Metabotropic glutamate receptor 8 (Rattus norvegicus) (UniProt P70579). Nature of the test: mGluR8 Gi/Go-coupled signaling modulation – cell-based, rat, thallium flux, HTS, primary screen (AID 488969). To be noted: HEK293 rat mGluR8, GIRK (G protein-gated inwardly rectifying potassium channel) thallium flux, FluoZin2; at 10 µM; stronger effect = higher value; submaximal glutamate (EC20) added with thallium.
Sequence of UniProt P70579 (P70579 whole entry, looked up): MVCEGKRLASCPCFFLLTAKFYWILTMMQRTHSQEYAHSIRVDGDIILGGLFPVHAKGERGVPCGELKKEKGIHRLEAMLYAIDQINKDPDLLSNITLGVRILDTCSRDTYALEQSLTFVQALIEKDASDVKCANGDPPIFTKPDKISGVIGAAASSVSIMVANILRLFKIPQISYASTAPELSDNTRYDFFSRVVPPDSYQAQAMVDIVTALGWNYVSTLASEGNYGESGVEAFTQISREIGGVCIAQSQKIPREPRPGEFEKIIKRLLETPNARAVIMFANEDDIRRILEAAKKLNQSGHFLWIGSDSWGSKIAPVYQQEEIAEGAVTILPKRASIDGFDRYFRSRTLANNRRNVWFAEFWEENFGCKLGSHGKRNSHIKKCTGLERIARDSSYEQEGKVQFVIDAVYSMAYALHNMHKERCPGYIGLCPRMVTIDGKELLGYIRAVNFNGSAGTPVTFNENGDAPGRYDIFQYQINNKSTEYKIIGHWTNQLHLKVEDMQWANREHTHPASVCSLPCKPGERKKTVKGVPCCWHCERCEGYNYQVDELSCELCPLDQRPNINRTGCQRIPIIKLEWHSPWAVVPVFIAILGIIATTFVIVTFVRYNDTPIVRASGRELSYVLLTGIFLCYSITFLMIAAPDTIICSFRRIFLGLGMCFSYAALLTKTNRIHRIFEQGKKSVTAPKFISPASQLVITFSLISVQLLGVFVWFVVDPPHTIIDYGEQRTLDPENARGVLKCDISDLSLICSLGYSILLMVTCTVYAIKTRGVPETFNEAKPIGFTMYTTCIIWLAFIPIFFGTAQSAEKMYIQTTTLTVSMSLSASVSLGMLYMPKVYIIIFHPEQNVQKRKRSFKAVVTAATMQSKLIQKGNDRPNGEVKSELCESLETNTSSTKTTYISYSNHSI
Take `Cc1nc2nc(-c3cccnc3)[nH]n2c(=O)c1C`: the z-score came out at 0.355.
On to `CC1=C(C(=O)Nc2ccc(F)cc2)C(c2ccc(C)o2)C2=C(CC(C)(C)CC2=O)N1` (centres undefined), for which the z-score is 0.288.
The compound `COCCNC(=O)C(c1ccccc1C)N(C(=O)Cn1nnc2ccccc21)c1cccnc1` (centres undefined) showed a z-score of -0.094.
Compound `CCN1CCN(c2nc(-c3ccccn3)nc3ccccc23)CC1` displayed a z-score of -0.254.
The compound `O=C(CN1CCN(c2ccccc2F)CC1)Nc1ccccc1F` gave a z-score of -0.273.
For the compound `Cc1ccccc1CSCC(=O)N1CCN(c2ccccc2)CC1`, the z-score is -0.594.
In turn, `NC(=O)CN1CCOCCOCCN(CC(N)=O)CCOCCOCC1` yielded a z-score of 0.22.
In turn, `Cc1nn(C(C)C(=O)N2CCc3ccccc32)c(C)c1[N+](=O)[O-]` (centres undefined) showed a z-score of -0.0522.
For `CCN(CC)S(=O)(=O)c1ccc(C(=O)NCc2n[nH]c(=S)n2Cc2ccccc2)cc1`, the z-score was -0.285.
Then `CN(Cc1ccccc1)c1nc(N)c([N+](=O)[O-])c(NCc2ccccc2)n1`, with -0.101.
Take `COc1ccc(N/C(=C(/C(Cl)=C(Cl)Cl)[N+](=O)[O-])n2nnc3ccccc32)cc1`: the z-score was -0.744.
Consider `COC(=O)COc1cccc(NC(=O)c2cccs2)c1`, for which the z-score was -0.153.
As for `Cc1ccccc1Cn1cc(S(=O)(=O)CC(=O)N2CCCCC2)c2ccccc21`, the z-score worked out at 0.628.
Turning to `N#Cc1c(Oc2ccc3ccccc3c2)sc(C(=O)c2ccccc2)c1N`, the z-score was found to be 0.028.
`CCOC(=O)c1sc(NC(=O)CSc2nnnn2-c2ccc(C)cc2C)nc1C` showed a z-score of -0.499.
Turning to `CC(=O)N1CCc2cc(Br)cc(S(=O)(=O)NCCN3CCCCC3C)c21` (centres undefined), the z-score was found to be 0.632.
Next, `O=C(NCCC1=CCCCC1)C1CCN(Cc2cnn(-c3ccccc3)c2-n2cccc2)CC1`: 0.122; `N#CCCN1CCN(S(=O)(=O)c2ccc3c(c2)OCCCO3)CC1`: -0.473.
`CCn1cc(C(=O)N/N=C(/C)c2ccc(F)cc2)c(=O)c2cc(F)c(N3CCCC3)cc21`: the z-score was -0.438.
Consider `CCC(NC(=O)Nc1ccc(O)cc1)(C(F)(F)F)C(F)(F)F`, for which the z-score was 0.671.
`Cc1ccc2cccc(S(=O)(=O)NC3CCS(=O)(=O)C3)c2n1` (centres undefined) came in with a z-score of -0.155.
Take `CNC(=O)CSCc1cnn(-c2ccccc2)c1-n1cccc1`: the z-score is 0.052.
For the compound `O=C(Nc1cc(C(F)(F)F)ccc1N1CCOCC1)c1cccnc1Cl`, the z-score stood at 0.268.
As for `COc1ccc(CNC(=O)Nc2cccc(C(F)(F)F)c2)cc1OC`, the z-score was found to be 0.532.
As to `CCOc1ccc(N(CC(=O)NC2CCCC2)C(=O)CSc2nnc(COc3ccccc3)o2)cc1`, the z-score was -0.322.
Compound `O=C(/C=C/c1ccc(Cl)cc1Cl)NC(=S)Nc1ccccn1` had a z-score of 0.635.
`COc1cccc(C(C#N)N2CCOCC2)c1` (centres undefined) showed a z-score of -0.0772.
Then `O=C1CC(c2ccccc2Cl)Cc2c1cnn2-c1nc2ccccc2s1` (centres undefined), with 0.242; and `Cc1nc2sc(C(c3ccco3)N3CCOCC3)c(O)n2n1` (centres undefined), with 0.165; and `Cc1cc(C)c2c(c1)SC1=NC(c3ccccc3)(C(F)(F)F)NC(=O)N12` (centres undefined), with -0.482.
`Cn1nc(-c2ccccc2)c(-c2nc(-c3cccc(C(F)(F)F)c3)no2)c1Cl` registered a z-score of 0.362.
Take `CCOC(=O)c1ccccc1NC(=O)c1ccccc1NS(C)(=O)=O`: the z-score was -0.268.
Then `O=C(CSCc1ccc(Cl)c(Cl)c1)Nc1c[nH]c(=O)[nH]c1=O`, with -0.198; and `COc1ccc(Nc2nc(S(=O)(=O)c3ccc(C)cc3)c(Cl)s2)cc1`, with 0.0796; and `CCOC(=O)C(C)n1cnc2sc(C)c(C)c2c1=O` (centres undefined), with -0.0783.
Then `CC(C)(C)c1cccc(Oc2nn[nH]n2)c1`, with -0.526; and `COCC(=O)N(C)c1nnc(-c2ccccn2)s1`, with 0.142.
Then `CC(=O)N1CCc2cc(Br)cc(S(=O)(=O)N3CCCCCC3)c21`, with 1.47.
`C=CCn1c(COc2ccccc2)nnc1SCC(=O)Nc1ccc2c(c1)OCCO2` had a z-score of -0.529.
Then `Cc1nc2ccc(C(=O)O)cc2c2c1CC(C)S2` (centres undefined), with 0.154; and `O=C(NCCc1cccc(Cl)c1)c1cc([N+](=O)[O-])ccc1Cl`, with -0.16; and `CC(=O)c1cc(C#N)c(Oc2ccccc2)nc1C`, with -0.109.
On to `COCCOC(=O)C1=C(C)NC(=O)NC1c1c(Cl)nc2ccccn2c1=O` (centres undefined), for which the z-score turned out to be 0.0414.
Then `Cc1ccc(/C=N/n2cnc3sc(-c4ccccc4)cc3c2=O)o1`, with -0.579; and `O=S(=O)(Nc1nc(-c2sccc2Cl)cs1)c1cc(Cl)ccc1Cl`, with active: 3.41.
`CCCCC(=O)Nc1cccc(NC(=S)NC(=O)Cc2ccccc2)c1` returned a z-score of -0.551.
Take `COc1ccc(-c2nnnn2C)cc1S(=O)(=O)NCCc1ccccc1`: the z-score was 1.29.
Next, `Cc1ccsc1/C=N/NC(=O)c1ccc2nc[nH]c2c1`: -0.151; `COc1ccc(C(=O)Nn2c(SCc3ccc([N+](=O)[O-])cc3)nc3ccccc3c2=O)cc1`: 0.0699.
Compound `COc1ccc(OC)c(N2CC(O)=C(c3nc4ccccc4s3)C2=N)c1` registered a z-score of -0.71.
Then `CC(=O)Nc1ccc(C(=O)N(C)c2ccccc2)cc1`, with -0.095; and `CCn1c(SCC(=O)Nc2ccc(S(N)(=O)=O)cc2)nnc1-c1cccc(OC)c1`, with 0.0875; and `CCOC(=O)CN1C2=NCCN2c2ccccc21`, with -0.058.
`Cc1sc(NC(=O)C2CCCCC2C(=O)O)c(C(N)=O)c1-c1ccccc1` (centres undefined) returned a z-score of -0.169.
Next, `COCCn1cnc2c1c(=O)n(CC(=O)OCC(=O)NCC(F)(F)F)c(=O)n2Cc1ccccc1`: -0.0742.
Turning to `Cc1cccc(-n2c(O)c(C=NC3CCS(=O)(=O)C3)c3ccccc3c2=O)c1` (centres undefined), the z-score was found to be 0.139.
Take `COc1ccc(CC(=O)NCCN2CCCC2)cc1`: the z-score is -0.117.
Take `COc1cc(OC)cc(C(=O)Nc2ccccc2N2CCOCC2)c1`: the z-score was -1.56.
Turning to `NNC(=O)CN1C(c2ccc(Cl)cc2)=Nc2ccc(Br)cc2C1c1ccccc1` (centres undefined), the z-score is -0.965.
Next, `Cc1ccccc1OC(=O)C1C(c2ccccc2)C(C(=O)O)C1c1ccccc1` (centres undefined): 0.107; `CCOC(=O)CC1=C(C(=O)OCC)C(c2cccs2)C(C#N)=C(N)O1` (centres undefined): active: 3.6; `COc1ccc(CCNC(=O)COC(=O)c2ccc(Br)o2)cc1OC`: 0.125.
In turn, `CC(C)CC1=NN(C(=O)c2cccnc2)C(O)(C(F)(F)F)C1` (centres undefined) registered a z-score of -0.281.
As for `O=C(O)CSCC(=O)NCc1ccccc1`, the z-score is -0.247.
Regarding `COc1ccc(NC(C)C(=O)Nc2ccc(C#N)cc2)cc1Cl` (centres undefined), the z-score is -0.144.
For `COc1ccc(CCNC(=O)c2nn(C)cc2Cl)cc1`, the z-score came to 0.0878.
Regarding `CC(C)(CNC(=O)/C=C/c1ccc(F)cc1)CNC(=O)/C=C/c1ccc(F)cc1`, the z-score was -0.186.
For the compound `COC(=O)c1cn(NC(=O)c2cc(OC)c(OC)c(OC)c2)c(=O)c2ccccc12`, the z-score was -0.119.
`O=c1c2ccccc2nc(N2CCN(c3ccccc3)CC2)n1Cc1ccccc1` yielded a z-score of -0.556.
As to `CCC(C)NC(=O)C1(C)CCC(=O)N1Cc1ccccc1OC` (centres undefined), the z-score was -0.203.
Next, `Cc1nn(-c2ccccc2)c2nc(=O)n(-c3ccccc3)cc12`: 0.382; `COc1cc(SC)ccc1C(=O)Nc1ccc2c(c1)OCCO2`: -0.616; `CCN(CC)S(=O)(=O)c1ccc(NC2CCCc3ccccc32)nc1` (centres undefined): -0.0653.
Then `c1ccc(-n2ncc3c(NCc4ccccn4)ncnc32)cc1`, with -0.201; and `Cc1ccc2cc(CN(C(=O)c3ccco3)c3ccccc3)c(=O)[nH]c2c1`, with -0.656.
Turning to `COc1ccc(OC)c(NC(=O)Cn2c(-c3ccc(Cl)cc3)noc2=O)c1`, the z-score was found to be 0.687.
`Cc1ccc(CNC(C)c2ccccc2)cc1` (centres undefined): the z-score is 0.00558.
Take `COc1cccc2cc(C(C)=O)c(=O)oc12`: the z-score was -0.157.
In turn, `COC(=O)c1ccccc1N(C)C(=O)C12CCC(C)(C(=O)O1)C2(C)C` (centres undefined) displayed a z-score of -0.42.
Compound `CC(=O)NN1C(=O)/C(=C\c2ccccc2)SC1=S` registered a z-score of -0.137.
For `Cc1ccc(-c2c(C#N)c(N)nc3c2CCCC3)s1`, the z-score was -0.0781.
Compound `CCC(Sc1nncn1C)C(=O)Nc1nnc(-c2ccccc2Cl)s1` (centres undefined) gave a z-score of 0.118.
In turn, `O=C(NCc1cccnc1)c1ccc(Cl)cc1[N+](=O)[O-]` showed a z-score of -0.16.
The compound `Nn1c(SCC(=O)NC2CCCc3ccccc32)nnc1-c1ccc(Cl)cc1Cl` (centres undefined) registered a z-score of -0.15.
Consider `CCn1c(SCC(=O)Nc2nc(C)cs2)nnc1C(NC(=O)c1ccccc1Cl)C(C)C` (centres undefined), for which the z-score is 0.0315.
For `Cc1ccc(C(=O)Nc2ccccc2C(=O)N2CCCC2)cc1[N+](=O)[O-]`, the z-score is 0.0381.
`COC(=O)Nc1ccc(S(=O)(=O)N2CCC(Cc3ccccc3)CC2)cc1`: the z-score was -0.0675.
On to `COc1ccc(Nc2nc(Nc3ccc(OC)cc3)nc(SC3=NCCS3)n2)cc1`, for which the z-score was -1.2.
Then `CCC1=NN(C(=O)Cc2ccc([N+](=O)[O-])cc2)C(O)(c2ccc(Br)cc2)C1` (centres undefined), with -0.206; and `COc1cccc(C(=O)Nc2ncc3c(n2)CC(c2ccc(OC)cc2OC)CC3=O)c1` (centres undefined), with -1.19; and `O=C(N/N=C\c1ccc(-c2ccccc2[N+](=O)[O-])o1)C1COc2ccccc2O1` (centres undefined), with -0.225.
As for `Cc1cc(C)nc(SCC(=O)OCC(=O)Nc2nc3ccccc3s2)n1`, the z-score was -0.0902.
Regarding `O=C(Nc1cccc2ccccc12)NC1CCCc2ccccc21` (centres undefined), the z-score is -0.225.
As to `CC(=O)c1c(C)[nH]c(C(=O)COC(=O)c2cc(S(=O)(=O)N(C)c3ccccc3)ccc2Cl)c1C`, the z-score was -0.243.
Next, `CN(c1ccc(S(=O)(=O)N2CCOCC2)cn1)C1CCCCC1`: 0.185; `O=C(NC1CCCCC1)c1cc([N+](=O)[O-])[nH]n1`: 0.0144; `COc1ccc(-c2cc(C(=O)O)[nH]n2)cc1OC`: 0.115.
Compound `COc1cc(NC(=O)C2CCCCC2)c(OC)cc1NC(=O)CCC(=O)NCc1ccco1` returned a z-score of -0.237.
`CN(C)c1ccc(NC(=O)c2ccc(COc3cccc(Cl)c3)o2)cc1` registered a z-score of -0.611.
In turn, `O=C(/C=C/c1cccc([N+](=O)[O-])c1)c1ccc2c(c1)OCCO2` yielded a z-score of -0.246.
`COC(=O)c1nc(NC(=O)C(C)(C)C)n[nH]1` had a z-score of 0.11.
For `Cc1cccc(C(C)C)c1NC(=O)CN(C)Cc1cccc(F)c1`, the z-score is -0.417.
For the compound `COc1cc(C=O)ccc1OS(=O)(=O)c1ccc(NC(C)=O)cc1`, the z-score is -0.4.
`COc1ccc(Cl)c(Cn2c(NCCCO)nc3c2c(=O)n(C)c(=O)n3C)c1` came in with a z-score of -0.642.
In turn, `Cn1c(C(=O)N2CCN(c3nc4ccccc4s3)CC2)cc2sccc21` had a z-score of -0.631.
Then `CCOc1ccccc1NC(=O)c1ccccc1N(C)S(C)(=O)=O`, with -0.366.
Next, `O=C(Nc1cccnc1)C1OCCc2ccccc21` (centres undefined): -0.355; `Cc1ccc(-c2cc(-c3nnc(SCC(=O)NC(C)C(C)C)n3N)c3ccccc3n2)cc1` (centres undefined): -0.304; `O=C(c1ccc(Br)o1)N1CCN=C1SCc1cccnc1`: 0.392.
